Experimental data as given in article PMC11995724, “Antibiotic target discovery by integrated phenotypic and activity-based profiling of electrophilic fragments” (Cell chemical biology, 2025).
Out of some 3,200 compounds screened, about 75 (2%) showed an effect of 50% or more. The list shows a part of the results.

system: T1, S. aureus MSSA476; parameters: species or system S. aureus MSSA476 (TSB) or V. cholerae SAD30 (LB); 384-well bacterial growth screen at 25 uM, OD600 relative to DMSO control; settings: relative growth, OD600, TSB; 25 µM; inhibitor
T1 construct: MSSA476

Q: With `C=CC(=O)N(C)CC(=O)NC1CCCN(c2ccc(F)cc2F)C1=O` (stereo not drawn) [2-P22, N-({[1-(2,4-difluorophenyl)-2-oxopiperidin-3-yl]carbamoyl}methyl)-N-methylprop-2-enamide] as the compound, how does the “% of control remaining” value read?
A: 103.742%

Q: With `O=C(NCc1ccco1)C1CCCN1C(=O)CCl` (stereo not drawn) [5-N05, 1-(2-chloroacetyl)-N-[(furan-2-yl)methyl]pyrrolidine-2-carboxamide] as the compound, how does the “% of control remaining” value read?
A: 93.6248%

Q: For `C=CC(=O)NCCCN1CCCS1(=O)=O` [3-H19, N-[3-(1,1-dioxo-1lambda6,2-thiazolidin-2-yl)propyl]prop-2-enamide], which “% of control remaining” value is on record?
A: 86.0253%

Q: With `C=CC(=O)NCc1ccc(N2CC(C)CS2(=O)=O)cc1` (stereo not drawn) [3-J19, N-{[4-(4-methyl-1,1-dioxo-1lambda6,2-thiazolidin-2-yl)phenyl]methyl}prop-2-enamide] as the compound, how does the “% of control remaining” value read?
A: 89.1598%

Q: With `Cn1c(N)c(N2C(=O)C=CC2=O)c(=O)[nH]c1=O` [10-P05, 6-amino-5-(2,5-dioxo-2,5-dihydro-1H-pyrrol-1-yl)-1-methyl-1,2,3,4-tetrahydropyrimidine-2,4-dione] as the compound, how does the “% of control remaining” value read?
A: 104.688%

Q: For `C=CC(=O)NC(c1ccc(C)cc1)C(C)S(C)(=O)=O` (stereo not drawn) [2-A10, N-[2-methanesulfonyl-1-(4-methylphenyl)propyl]prop-2-enamide], which “% of control remaining” value is on record?
A: 148.651%

Q: How did the “% of control remaining” value turn out when `N#CC(=Cc1ccccc1OCc1ccccc1)C(=O)NC(N)=O` [8-F05, (2-{[2-(benzyloxy)phenyl]methylidene}-2-cyanoacetyl)urea] was run?
A: 126.141%

Q: How did the “% of control remaining” value turn out when `C=CC(=O)N(C)CC(=O)N1CCC(c2nc3c(s2)CCCC3)CC1` [2-N04, N-methyl-N-{2-oxo-2-[4-(4,5,6,7-tetrahydro-1,3-benzothiazol-2-yl)piperidin-1-yl]ethyl}prop-2-enamide] was run?
A: 100.261%

Q: Which “% of control remaining” value does the source give for `C=CC(=O)NC1(c2ccccc2)CCCC1` [1-O15, N-(1-phenylcyclopentyl)prop-2-enamide] here?
A: 112.879%

Q: With `CC(Cl)C(=O)Nc1ccc(OCc2ccccc2)cc1` (stereo not drawn) [6-O13, N-[4-(benzyloxy)phenyl]-2-chloropropanamide] as the compound, how does the “% of control remaining” value read?
A: 85.3659%

Q: How did the “% of control remaining” value turn out when `CC(C)Oc1ccccc1C=C(C#N)C(=O)Nc1ccccc1` [8-M17, 2-cyano-N-phenyl-3-[2-(propan-2-yloxy)phenyl]prop-2-enamide] was run?
A: 82.6556%

Q: `Cc1nccn1Cc1ccc(NC(=O)C(C#N)=Cc2ccco2)cc1` [9-H12, 2-cyano-3-(furan-2-yl)-N-{4-[(2-methyl-1H-imidazol-1-yl)methyl]phenyl}prop-2-enamide] was tested. Which “% of control remaining” value did it give?
A: 102.772%

Q: For `C=CC(=O)NCc1ccnn1CC(F)(F)F` [1-O18, N-{[1-(2,2,2-trifluoroethyl)-1H-pyrazol-5-yl]methyl}prop-2-enamide], which “% of control remaining” value is on record?
A: 119.56%

Q: For `C=CC(=O)NCC1CS(=O)(=O)c2ccccc2O1` (stereo not drawn) [3-N17, N-[(4,4-dioxo-2,3-dihydro-1,4lambda6-benzoxathiin-2-yl)methyl]prop-2-enamide], which “% of control remaining” value is on record?
A: 109.36%

Q: Which “% of control remaining” value does the source give for `COc1ccc(C(=O)CCl)c(OC)c1` [10-G18, 2-chloro-1-(2,4-dimethoxyphenyl)ethan-1-one] here?
A: 124.375%

Q: How did the “% of control remaining” value turn out when `O=C(CCl)NC(Cn1cncn1)c1ccccc1` (stereo not drawn) [7-N03, 2-chloro-N-[1-phenyl-2-(1H-1,2,4-triazol-1-yl)ethyl]acetamide] was run?
A: 128.1%

Q: `CC(C)C(=O)Nc1ccc(C(=O)C(C)Cl)cc1` (stereo not drawn) [10-E08, N-[4-(2-chloropropanoyl)phenyl]-2-methylpropanamide] was tested. Which “% of control remaining” value did it give?
A: 106.875%

Q: `C=CC(=O)N(CC)CC(=O)N1CCC(c2nnc(C)o2)CC1` [3-A08, N-ethyl-N-{2-[4-(5-methyl-1,3,4-oxadiazol-2-yl)piperidin-1-yl]-2-oxoethyl}prop-2-enamide] was tested. Which “% of control remaining” value did it give?
A: 88.4632%

Q: With `C=CC(=O)N1CCC(c2nc(N(C)C)no2)CC1` [2-K09, 1-{4-[3-(dimethylamino)-1,2,4-oxadiazol-5-yl]piperidin-1-yl}prop-2-en-1-one] as the compound, how does the “% of control remaining” value read?
A: 98.1723%

Q: How did the “% of control remaining” value turn out when `O=C(CCl)N1CCN(Cc2ccon2)CC1` [5-O04, 2-chloro-1-{4-[(1,2-oxazol-3-yl)methyl]piperazin-1-yl}ethan-1-one] was run?
A: 95.4463%

Q: Which “% of control remaining” value does the source give for `C=CC(=O)N1CC[C@H](Oc2ccccc2)C1` [3-I18, 1-[(3S)-3-phenoxypyrrolidin-1-yl]prop-2-en-1-one] here?
A: 95.4288%

Q: Which “% of control remaining” value does the source give for `C=CC(=O)NC(C)Cn1cc(C(=O)O)cn1` (stereo not drawn) [3-D10, 1-[2-(prop-2-enamido)propyl]-1H-pyrazole-4-carboxylic acid] here?
A: 89.1598%

Q: For `O=C(CCl)NC1CC(=O)N(c2cccc(C(F)(F)F)c2)C1` (stereo not drawn) [5-E09, 2-chloro-N-{5-oxo-1-[3-(trifluoromethyl)phenyl]pyrrolidin-3-yl}acetamide], which “% of control remaining” value is on record?
A: 113.661%

Q: With `CC(Cl)C(=O)NCC1CCCCC1` (stereo not drawn) [4-I10, 2-chloro-N-(cyclohexylmethyl)propanamide] as the compound, how does the “% of control remaining” value read?
A: 113.578%

Q: With `CC(Cl)C(=O)NC1CC(C)N(c2ccccc2)C1=O` (stereo not drawn) [5-B19, 2-chloro-N-(5-methyl-2-oxo-1-phenylpyrrolidin-3-yl)propanamide] as the compound, how does the “% of control remaining” value read?
A: 99.8179%

Q: Which “% of control remaining” value does the source give for `O=C(CCl)NCc1ccccc1S(=O)(=O)N1CCOCC1` [4-F22, 2-chloro-N-{[2-(morpholine-4-sulfonyl)phenyl]methyl}acetamide] here?
A: 113.197%

Q: `C=CC(=O)N1CCC(C(=O)N2CCN(c3ccnc(C)n3)CC2)CC1` [2-L06, 1-{4-[4-(2-methylpyrimidin-4-yl)piperazine-1-carbonyl]piperidin-1-yl}prop-2-en-1-one] was tested. Which “% of control remaining” value did it give?
A: 111.053%

Q: `C[C@H]1CN(C(=O)CCl)CCN1C(=O)c1cscn1` [5-L05, 2-chloro-1-[(3S)-3-methyl-4-(1,3-thiazole-4-carbonyl)piperazin-1-yl]ethan-1-one] was tested. Which “% of control remaining” value did it give?
A: 92.5319%

Q: `COc1ccc(C=C(C#N)C(=O)Nc2ccc(C(=O)O)cc2)cc1C` [9-G14, 4-[2-cyano-3-(4-methoxy-3-methylphenyl)prop-2-enamido]benzoic acid] was tested. Which “% of control remaining” value did it give?
A: 105.468%

Q: For `CC(Cl)C(=O)NC(c1cccs1)c1cccs1` (stereo not drawn) [6-L21, N-[bis(thiophen-2-yl)methyl]-2-chloropropanamide], which “% of control remaining” value is on record?
A: 108.927%

Q: For `C=CC(=O)NC(C)c1ccc(-n2nc(C)cc2C)c(F)c1` (stereo not drawn) [3-P17, N-{1-[4-(3,5-dimethyl-1H-pyrazol-1-yl)-3-fluorophenyl]ethyl}prop-2-enamide], which “% of control remaining” value is on record?
A: 102.743%

Q: Which “% of control remaining” value does the source give for `C=CC(=O)NCc1coc(-c2ccc(C)cc2)n1` [2-F13, N-{[2-(4-methylphenyl)-1,3-oxazol-4-yl]methyl}prop-2-enamide] here?
A: 98.5205%

Q: Which “% of control remaining” value does the source give for `CC(Cl)C(=O)NCC1(n2ccnn2)CC1` (stereo not drawn) [6-B20, 2-chloro-N-{[1-(1H-1,2,3-triazol-1-yl)cyclopropyl]methyl}propanamide] here?
A: 103.805%

Q: `CC(Cl)C(=O)N1CCOCC1` (stereo not drawn) [5-H09, 2-chloro-1-(morpholin-4-yl)propan-1-one] was tested. Which “% of control remaining” value did it give?
A: 98.3607%

Q: For `CC(=O)Nc1ccc(NC(=O)C(C#N)=Cc2cc(F)ccc2F)cc1` [8-C12, 2-cyano-3-(2,5-difluorophenyl)-N-(4-acetamidophenyl)prop-2-enamide], which “% of control remaining” value is on record?
A: 120.498%

Q: `CC(=O)N1CCC(N(Cc2cncs2)C(=O)C(C)Cl)CC1` (stereo not drawn) [5-H21, N-(1-acetylpiperidin-4-yl)-2-chloro-N-[(1,3-thiazol-5-yl)methyl]propanamide] was tested. Which “% of control remaining” value did it give?
A: 99.0893%

Q: `COc1cc(Cl)ccc1CNC(=O)C(C#N)=Cc1ccco1` [9-E18, N-[(4-chloro-2-methoxyphenyl)methyl]-2-cyano-3-(furan-2-yl)prop-2-enamide] was tested. Which “% of control remaining” value did it give?
A: 117.453%

Q: With `COc1ccccc1C1CSCCCN1C(=O)CCl` (stereo not drawn) [5-O16, 2-chloro-1-[3-(2-methoxyphenyl)-1,4-thiazepan-4-yl]ethan-1-one] as the compound, how does the “% of control remaining” value read?
A: 90.7104%

Q: For `C=CC(=O)N(CC)Cc1cn(C)nn1` [2-O09, N-ethyl-N-[(1-methyl-1H-1,2,3-triazol-4-yl)methyl]prop-2-enamide], which “% of control remaining” value is on record?
A: 106.527%

Q: For `O=C(CCl)Nc1ccc(Cl)c(S(=O)(=O)N2CCCCC2)c1` [4-P14, 2-chloro-N-[4-chloro-3-(piperidine-1-sulfonyl)phenyl]acetamide], which “% of control remaining” value is on record?
A: 134.159%

Q: How did the “% of control remaining” value turn out when `C=CC(=O)N(C)CC(=O)N1CCCc2ccccc21` [3-D15, N-methyl-N-[2-oxo-2-(1,2,3,4-tetrahydroquinolin-1-yl)ethyl]prop-2-enamide] was run?
A: 95.0805%

Q: Which “% of control remaining” value does the source give for `CC(NC(=O)CCl)C(=O)Nc1ccc(Cl)cc1` (stereo not drawn) [5-G11, 2-(2-chloroacetamido)-N-(4-chlorophenyl)propanamide] here?
A: 83.4244%

Q: With `C=CC(=O)Nc1ccc(C(N)=O)nc1OC` [1-E18, 6-methoxy-5-(prop-2-enamido)pyridine-2-carboxamide] as the compound, how does the “% of control remaining” value read?
A: 89.3187%

Q: For `Cc1nn(C)c(C)c1CN(C(=O)CCl)C1CCCCC1C` (stereo not drawn) [5-A14, 2-chloro-N-(2-methylcyclohexyl)-N-[(1,3,5-trimethyl-1H-pyrazol-4-yl)methyl]acetamide], which “% of control remaining” value is on record?
A: 100.546%

Q: For `Cc1nn(C)c(C)c1C=C(C#N)C(=O)Nc1ccc2c(c1)OCCO2` [9-D03, 2-cyano-N-(2,3-dihydro-1,4-benzodioxin-6-yl)-3-(1,3,5-trimethyl-1H-pyrazol-4-yl)prop-2-enamide], which “% of control remaining” value is on record?
A: 80.2996%
